Data: the supplement of paper PMC4604168 (melanoma cell lines)
The list shows a part of the results. Most values come without repeats; read them as rough.

Assays:
Assay in all cases: cell count relative to DMSO control; melanoma cells; higher = more viable cells
Settings in all cases: library dose: standard library concentration; 72 h
[1] = tested on: G361
[2] = tested on: IPC-298
[3] = tested on: IST-MEL1
[4] = tested on: LB2518-MEL
[5] = tested on: LOXIMVI
[6] = tested on: MEL-HO
[7] = tested on: MZ2-MEL
[8] = tested on: MeWo
[9] = tested on: RPMI7951
[10] = tested on: RVH-421
[11] = tested on: SkMel28
[12] = tested on: SkMel2
[13] = tested on: SkMel30
[14] = tested on: SkMel5
[15] = tested on: UACC257
[16] = tested on: UACC62
[17] = tested on: WM115
[18] = tested on: WM1716
[19] = tested on: WM1745
[20] = tested on: WM3526
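Note: cells treated in 1,536-well plates, then fixed and DAPI-stained, with nuclei counted from automated high-throughput microscope images.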

SMILES	cell count [1]	cell count [2]	cell count [3]	cell count [4]	cell count [5]	cell count [6]	cell count [7]	cell count [8]	cell count [9]	cell count [10]	cell count [11]	cell count [12]	cell count [13]	cell count [14]	cell count [15]	cell count [16]	cell count [17]	cell count [18]	cell count [19]	cell count [20]
O=C(CCCCCCC(=O)Nc1ccccc1)NO [vorinostat] + O=c1cc(-c2cccc3c2Sc2ccccc2S3)oc(N2CCOCC2)c1 [KU55933] (first compound 0.4 µM, partner dose 5 µM)	74.9%	85.7%	99.3%	81.9%	94.7%	80%	83.8%	77.8%	71.3%	125%	48.3%	71%	114%	71.3%	84.1%	83.5%	95%	81.5%	81.2%	74.4%
O=C(CCCCCCC(=O)Nc1ccccc1)NO [vorinostat] + Oc1cc(-c2nc(-c3ccccc3)[nH]c2-c2ccncc2)ccc1Cl [L779450] (first compound 0.4 µM, partner dose 1 µM)	47.1%	73%	94.6%	96.2%	112%	74.5%	99.4%	82.3%	60.1%	86.9%	30.2%	14.8%	84.4%	72.6%	83.2%	66.9%	67.8%	83.1%	63%	58.6%
OCc1c[nH]c2ccccc12 [Indole-3-carbinol] + COc1cc2c(Oc3ccc4[nH]c(C)cc4c3F)ncnc2cc1OCCCN1CCCC1 [cediranib] (first compound 4 µM, partner dose 2 µM)	82.5%	112%	103%	92.8%	77.5%	110%	97.3%	91.3%	75%	89.6%	113%	90.1%	90.8%	71.1%	111%	98.2%	101%	115%	64.3%	79%
OCc1c[nH]c2ccccc12 [Indole-3-carbinol] + COCC[n+]1c2c(n(Cc3cnccn3)c1C)C(=O)c1ccccc1C2=O [YM155] (first compound 4 µM, partner dose 0.002 µM)	100%	42.3%	61%	44.6%	99.5%	109%	30.3%	67.7%	72.7%	137%	35%	50.4%	73.5%	57.5%	34.6%	54.5%	88.9%	77.9%	90.7%	52.1%
COCC[n+]1c2c(n(Cc3cnccn3)c1C)C(=O)c1ccccc1C2=O + COc1ccc(COc2ccc(Cc3cnc(N)nc3N)cc2OC)cc1 [GW2580] (first compound 0.002 µM, partner dose 5 µM)	82.2%	85.4%	97.6%	102%	94.3%	105%	69.1%	91.1%	110%	83%	96.8%	108%	82.7%	75.7%	55%	77.8%	107%	116%	72.9%	75.7%
OCc1c[nH]c2ccccc12 [Indole-3-carbinol] + Cc1ccc(NC(=O)c2cccc(N(C)C)c2)cc1NC(=O)c1ccc(O)cc1 [ZM336372] (first compound 4 µM, partner dose 10 µM)	108%	104%	66.3%	110%	80.7%	98.6%	104%	93.1%	63.9%	111%	81.6%	90.6%	128%	78.5%	87%	118%	90.3%	106%	80.1%	89.8%
OCc1c[nH]c2ccccc12 [Indole-3-carbinol] + Cn1c(Nc2ccc(C(F)(F)F)cc2)nc2cc(Oc3ccnc(-c4ncc(C(F)(F)F)[nH]4)c3)ccc21 [CHIR265] (first compound 4 µM, partner dose 0.4 µM)	23.7%	40.1%	83.5%	42%	78.3%	63.2%	68.5%	74%	63.9%	48.6%	42.4%	57.2%	61.1%	36.8%	64.3%	43.2%	43.7%	86%	58.4%	48.6%
C#Cc1cccc(Nc2ncnc3cc(OCCOC)c(OCCOC)cc23)c1 [erlotinib] + Cc1nc(Nc2ncc(C(=O)Nc3c(C)cccc3Cl)s2)cc(N2CCN(CCO)CC2)n1 [dasatanib] (first compound 4 µM, partner dose 0.02 µM)	70.6%	52.2%	63.3%	69.8%	24.5%	73.7%	45%	69.4%	30.6%	37.7%	59.1%	78.5%	68.9%	49.3%	74.2%	40.3%	47.5%	68.7%	27.2%	64.6%
Nc1cccc2c1CN(C1CCC(=O)NC1=O)C2=O (stereo not given) [lenalidomide] + Cc1cc(N2CCOCC2)cc2[nH]c(-c3c(NC[C@@H](O)c4cccc(Cl)c4)cc[nH]c3=O)nc12 [BMS536924] (first compound 5 µM, partner dose 1 µM)	80.7%	77.6%	83.5%	80.5%	86.6%	84.1%	110%	68%	88.2%	100%	69.7%	66.4%	79.7%	89.4%	94%	113%	85.6%	94.1%	38.6%	68.4%
COCC[n+]1c2c(n(Cc3cnccn3)c1C)C(=O)c1ccccc1C2=O + NCC(=O)Nc1ccc(-n2nc(C(F)(F)F)cc2-c2ccc3c(ccc4ccccc43)c2)cc1 [OSU03012] (first compound 0.002 µM, partner dose 5 µM)	75.3%	47.3%	36.6%	33.5%	56.3%	78.8%	39.6%	59%	49.9%	78.8%	17.3%	22.3%	45.5%	34.2%	41.9%	53.9%	55.5%	64.3%	69.6%	28.9%
COCC[n+]1c2c(n(Cc3cnccn3)c1C)C(=O)c1ccccc1C2=O + CN(NC(=O)CC(=O)NN(C)C(=S)c1ccccc1)C(=S)c1ccccc1 [STA4783] (first compound 0.002 µM, partner dose 0.03 µM)	21.4%	33.6%	18.3%	9.04%	43%	69.3%	31.8%	13.8%	30.7%	58.5%	19.2%	29.2%	62.2%	22.6%	35.6%	66.1%	22.9%	38.6%	24.9%	32.8%
C#Cc1cccc(Nc2ncnc3cc(OCCOC)c(OCCOC)cc23)c1 [erlotinib] + COc1cc(N2CCC(N3CCN(C)CC3)CC2)ccc1Nc1ncc(Cl)c(Nc2ccccc2S(=O)(=O)C(C)C)n1 [NVP-TAE684] (first compound 4 µM, partner dose 0.4 µM)	53.7%	66.9%	94.1%	60.8%	60.8%	79.5%	73.7%	53.9%	61.9%	97.4%	45.9%	44.7%	76.2%	53%	87.8%	68.3%	63.8%	78.1%	33%	42.8%
Cn1c(Nc2ccc(C(F)(F)F)cc2)nc2cc(Oc3ccnc(-c4ncc(C(F)(F)F)[nH]4)c3)ccc21 + Oc1cc(-c2nc(-c3ccccc3)[nH]c2-c2ccncc2)ccc1Cl [L779450] (first compound 0.4 µM, partner dose 1 µM)	21.8%	43.1%	78.6%	32.5%	76.1%	66.6%	75%	47.9%	45.8%	52%	32.2%	3.89%	58.2%	30.7%	66%	40.3%	24%	50.8%	45.6%	28.1%
O=C(CCCCCCC(=O)Nc1ccccc1)NO [vorinostat] + CCc1ccc(CCOc2ccc(CC3SC(=O)NC3=O)cc2)nc1 [pioglitazone] (first compound 0.4 µM, partner dose 10 µM)	65.7%	97.5%	92.8%	81.6%	84.2%	88.1%	97.4%	86.3%	84%	97.4%	71.1%	76.5%	95.1%	60.6%	54.2%	73.7%	77.5%	98.2%	77.3%	74.6%
Clc1ccc(Nc2nnc(Cc3ccncc3)c3ccccc23)cc1 [vatalanib] + Cn1nnc2c(C(N)=O)ncn2c1=O [temozolomide] (first compound 10 µM, partner dose 10 µM)	99.9%	76.1%	65.6%	104%	58.4%	63.2%	73.6%	77.3%	66.7%	82.2%	39.2%	93.3%	58.6%	78.9%	74.9%	44.4%	77.6%	55.6%	58.2%	96.7%
O=C(CCCCCCC(=O)Nc1ccccc1)NO [vorinostat] + Cc1cc(N2CCOCC2)cc2[nH]c(-c3c(NC[C@@H](O)c4cccc(Cl)c4)cc[nH]c3=O)nc12 [BMS536924] (first compound 0.4 µM, partner dose 1 µM)	52.9%	78.2%	56.5%	84.5%	65.6%	75%	104%	57.7%	65.6%	99.2%	55%	77.9%	71.9%	43.7%	66.6%	69.6%	80.1%	96%	50.8%	65.8%
C#Cc1cccc(Nc2ncnc3cc(OCCOC)c(OCCOC)cc23)c1 [erlotinib] + Cc1ccc(NC(=O)c2cccc(N(C)C)c2)cc1NC(=O)c1ccc(O)cc1 [ZM336372] (first compound 4 µM, partner dose 10 µM)	68.6%	88.2%	88.1%	48.8%	68.2%	80.7%	91.5%	77.5%	66.3%	74.1%	79.5%	93.3%	94.8%	62.6%	80.3%	60%	73.1%	110%	53.2%	85%
